Laboratory results reported in PubChem BioAssay AID1768 (National Center for Advancing Translational Sciences (NCATS), 2009).
Screen size: about 270,000 compounds; about 620 (0.23%) were called active. Inconclusive results, whose numbers are uncertain, are shown with a selection of clear calls. Calls come from the whole dose curve; as a rule, active = well fitted inhibition curve with a large enough effect in the polarisation, with a control signal flat (not every such curve was filed as active); inconclusive = small, poorly fitted or top-dose-only effect, or effect the other way, or a change in a side signal; inactive = no such curve, though single readings can be large or run the other way; the % refers to the polarisation. Where the call is inconclusive, the potency comes from a doubtful curve fit. “Side channel” marks fits to a control or component signal instead of the main read-out.

Target: Menin (Homo sapiens) (UniProt O00255)
Assay: qHTS Assay for Inhibitors Targeting the Menin-MLL Interaction in MLL Related Leukemias: Competition With Texas Red Labeled MLL-derived Mutant Peptide
Conditions: fluorescence polarization; series mostly up to 61.6 µM
Potency is the fitted concentration of half-maximal effect; tags give direction and shape of the fitted curve or compound fluorescence and quenching.

UniProt O00255, sequence (O00255 whole entry, looked up): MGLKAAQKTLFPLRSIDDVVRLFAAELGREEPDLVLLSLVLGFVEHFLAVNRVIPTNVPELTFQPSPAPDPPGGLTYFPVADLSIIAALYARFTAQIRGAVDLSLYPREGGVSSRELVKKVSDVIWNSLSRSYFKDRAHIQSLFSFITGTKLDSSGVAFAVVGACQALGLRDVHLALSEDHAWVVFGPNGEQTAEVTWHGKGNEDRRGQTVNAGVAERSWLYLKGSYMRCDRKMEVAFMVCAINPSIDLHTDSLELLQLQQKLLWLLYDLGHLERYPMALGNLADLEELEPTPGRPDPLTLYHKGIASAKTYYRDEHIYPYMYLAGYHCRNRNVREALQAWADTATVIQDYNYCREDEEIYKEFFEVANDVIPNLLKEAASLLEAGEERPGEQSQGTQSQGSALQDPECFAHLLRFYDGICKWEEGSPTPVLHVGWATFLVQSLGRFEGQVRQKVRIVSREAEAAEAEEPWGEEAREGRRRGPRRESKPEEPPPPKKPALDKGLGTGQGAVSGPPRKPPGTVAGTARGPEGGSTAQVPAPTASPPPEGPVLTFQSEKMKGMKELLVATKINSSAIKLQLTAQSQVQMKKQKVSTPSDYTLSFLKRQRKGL

Row | Structure (SMILES) | Potency
1 | Cc1cc(C)c(S(=O)(=O)N2CCN(c3ccc([N+](=O)[O-])c(NCc4ccco4)c3)CC2)c(C)c1 | inconclusive: 39.8 µM [inhibitor, single point]
2 | CCOC(=O)C1=C(C)N=c2s/c(=C/c3ccc(OCC(=O)O)cc3)c(=O)n2C1c1ccc(F)cc1 (stereo unspecified) | inconclusive: 14.1 µM [quencher, side channel, partial curve]
3 | COc1ccc(-n2c(-c3ccc(Cl)cc3)c[n+]3c2CCc2ccccc2-3)cc1 | inconclusive: 39.8 µM [inhibitor, single point]
4 | COc1ccc(NC(=O)Nc2ccc(OC)cc2)cc1 | inactive
5 | Cc1cccc(C)c1OCCCn1ccnc1 | inconclusive: 7.08 µM [inhibitor, single point]
6 | CC(/C=C/c1ccc2c(c1)OCO2)=N/NC(=O)COc1ccc(C)cc1 | inconclusive: 11.2 µM [fluorescent, side channel, partial curve]
7 | Cc1cccc(NC(=O)Nc2ccc(Oc3c(F)c(F)c(F)c(F)c3F)cc2)c1 | inconclusive: 39.8 µM [inhibitor, single point]
8 | Cc1nn2c3c(cnc2c1-c1ccccc1)C(=O)CC(c1ccccc1)C3 (stereo unspecified) | inconclusive: 12.6 µM [inhibitor, partial curve]
9 | Cn1cc(/C=C2/SC(=O)N(c3ccccc3)C2=O)c2ccccc21 | inconclusive: 39.8 µM [inhibitor, single point]
10 | CC1=NN(c2ccc(Cl)cc2)C(=O)C1C(c1cccc(O)c1)c1c(C)[nH]n(-c2ccc(Cl)cc2)c1=O (stereo unspecified) | inconclusive: 14.1 µM [quencher, side channel, partial curve]
11 | O=c1c2ccccc2[nH]c(=S)n1Cc1ccccc1 | inconclusive: 39.8 µM [inhibitor, single point]
12 | COc1ccc(/C=N\NS(=O)(=O)c2ccc(C)cc2)cc1COc1ccccc1[N+](=O)[O-] | inconclusive: 7.94 µM [quencher, side channel, full curve]
13 | O=[N+]([O-])c1cc(S(=O)(=O)O)cc([N+](=O)[O-])c1NN(c1ccccc1)c1ccccc1 | inconclusive: 14.1 µM [quencher, side channel, partial curve]
14 | Cc1ccc(C(=O)c2c(C)oc3c2C(=O)C(=O)c2ccccc2-3)cc1 | inconclusive: 28.2 µM [quencher, side channel, single point]
15 | C=CCOc1c(Br)cc(/C=C2/C(=O)ON=C2C)cc1OC | inconclusive: 14.1 µM [quencher, side channel, partial curve]
16 | CCC(C)NC(=O)Cc1c(C)c2cc3c(cc2oc1=O)OC(C)(C)CC3 (stereo unspecified) | inconclusive: 1.41 µM [inhibitor, full curve, poor fit]
17 | COc1cccc(C2C3=C(N=c4s/c(=C\c5ccc(O)cc5)c(=O)n42)c2ccccc2CC3)c1OC (stereo unspecified) | inconclusive: 17.8 µM [quencher, side channel, partial curve]
18 | CCOC(=O)C1=C(C)NC(SCc2cc(=O)[nH][nH]2)=C(C#N)C1c1cccs1 (stereo unspecified) | inconclusive: 15.8 µM [quencher, side channel, partial curve]

Row | Structure (SMILES) | Potency
19 | Cc1ccc(C(=O)c2coc3cc([N+](=O)[O-])c(O)c([N+](=O)[O-])c23)cc1 | inconclusive: 39.8 µM [quencher, side channel, single point]
20 | COCCNC(=O)c1c(N)n(-c2ccccc2)c2nc3ccccc3nc12 | inactive
21 | CC(C)(C)c1ccc(NC(=O)C(=O)C2C(=O)Nc3ccccc32)cc1 (stereo unspecified) | inconclusive: 31.6 µM [quencher, side channel, partial curve]
22 | COc1ccc2[nH]c(=O)c(CN(CCO)C(=O)c3ccccc3F)cc2c1 | inactive
23 | FC(F)(F)c1cccc(NC(=S)Nc2ccc(Cl)cc2Cl)c1 | inconclusive: 39.8 µM [quencher, single point]
24 | O=C(Nc1ncc(Cc2ccc(Cl)cc2Cl)s1)c1ccc([N+](=O)[O-])cc1 | inconclusive: 12.6 µM [quencher, side channel, partial curve]
25 | C=CCn1c(SCC(=O)N2CCOCC2)nc2scc(-c3ccco3)c2c1=O | inconclusive: 39.8 µM [quencher, side channel, single point]
26 | CCCCCCCCCCCCC/C=C/[C@@H](O)[C@H](CO)NC(=O)CCCCC | inactive
27 | CSc1nc(-c2ccco2)cc(-c2ccccc2)c1C#N | inconclusive: 15.8 µM [quencher, side channel, partial curve]
28 | Cc1ccc2c(C)nc(Nc3nc(CSc4nnc(C)s4)cc(=O)[nH]3)nc2c1 | inconclusive: 15.8 µM [fluorescent, side channel, partial curve]
29 | O=[N+]([O-])c1ccc(N=NNc2ccccc2)cc1 | inconclusive: 25.1 µM [quencher, side channel, partial curve]
30 | COc1ccc(C(C[N+](=O)[O-])c2c(-c3ccccc3)cc3ccccn23)cc1OC (stereo unspecified) | inactive
31 | COc1ccc(-c2nnc3n2N=C(c2c(OC)cccc2OC)CS3)cc1 | inconclusive: 28.2 µM [fluorescent, side channel, single point]
32 | O=C(CSCc1ccc([N+](=O)[O-])cc1)Nc1cccc(C(=O)Nc2ccccc2C(=O)O)c1 | inconclusive: 10 µM [quencher, side channel, partial curve]
33 | COc1ccccc1CNC1CCN(Cc2ccccc2)CC1 | inconclusive: 17.8 µM [inhibitor, partial curve, poor fit]
34 | COc1ccc2cc(C(=O)N/N=C/c3cc(OC)c(OC)c(OC)c3)[nH]c2c1 | inconclusive: 28.2 µM [quencher, side channel, partial curve]
35 | CCC(C(=O)OCC(=O)N1C(C)CCCC1C)c1ccccc1 (stereo unspecified) | inconclusive: 0.631 µM [inhibitor, full curve, poor fit]
36 | O=C(CCC(=O)OCc1ccc(C(=O)Oc2ccc(Cl)cc2)cc1)Nc1ccccc1 | inconclusive: 31.6 µM [inhibitor, single point]
